# ± gives the uncertainty stated by the source. Over roughly 9,900 compounds, “viability index relative to DMSO control” has its median near 1; the lowest 2% begin near 0.85. Some of the results follow.
# Test system: Plasmodium falciparum NF54 stage V gametocytes
# Test: viability index relative to DMSO control (fraction); higher = less gametocyte killing
# Details: 2.5 µM, library set: Broad Institute DOS, incubation time: 72 h
# Method: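 Broad DOS informer set and blood-stage-active DOS compounds screened in duplicate at 2.5 µM against P. falciparum NF54 stage V gametocytes with the serum-free one-step SaLSSA (1536-well): 72 h at 37 °C under low oxygen, then saponin lysis and MitoTracker Red CMXRos staining, with high-content imaging. Viability index = viable-object count divided by the plate mean of DMSO wells (0 = killed, about 1 = inactive).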
row,Compound,viability index
1,O=C(O)[C@H]1[C@H](CO)[C@H]2Cn3c(ccc(-c4cccnc4)c3=O)[C@@H]1N2C(=O)Nc1cc(F)ccc1F,1.08 ± 0.059
2,C[C@@H]1CN([C@H](C)CO)C(=O)CCCn2nncc2CO[C@@H]1CN(C)C(=O)Oc1cccc2ccccc12,1.02 ± 0.038
3,CCC(=O)N1[C@@H]2Cn3c(ccc(C4=CCCC4)c3=O)[C@H]1[C@@H](C(=O)OC)[C@@H]2CO,1.0457 ± 3.7e-05
4,COC(=O)[C@H]1[C@H](CO)[C@H]2Cn3c(ccc(-c4cccc(C(=O)N(C)C)c4)c3=O)[C@@H]1N2C(=O)NC(C)C,1.05 ± 0.047
5,c1cncc(-c2ccc([C@@H]3[C@H]4CNC[C@@H]3N4CC3CC3)cc2)c1,1.03 ± 0.026
6,C[C@@H]1CN([C@@H](C)CO)C(=O)CCCn2nncc2CO[C@H]1CN(C)C(=O)Oc1cccc2ccccc12,0.953 ± 0.019
7,O=C(O)C[C@@H]1CC[C@H]2NC[C@@H](O)COC[C@@H]2O1,1.13 ± 0.034
8,COC(=O)[C@@H]1[C@@H](CO)[C@@H]2Cn3c(ccc(-c4cccc(F)c4)c3=O)[C@H]1N2Cc1ccncc1,1.064 ± 0.0094
9,OC[C@@H]1[C@@H]2c3ccccc3NC[C@@H]2N1Cc1cccnc1,1.03 ± 0.021
10,C/C=C/c1ccc2n(c1=O)C[C@@H]1[C@@H](CO)[C@H](C(=O)OC)[C@H]2N1S(=O)(=O)c1ccccc1C.C/C=C\c1ccc2n(c1=O)C[C@@H]1[C@@H](CO)[C@H](C(=O)OC)[C@H]2N1S(=O)(=O)c1ccccc1C,0.989 ± 0.091
11,C/C=C/c1ccc([C@@H]2[C@H](CO)N3CCCCN(C(=O)Cc4cccnc4)C[C@@H]23)cc1,0.952 ± 0.0099
12,CN1[C@@H](CO)[C@@H]2c3ccccc3NC[C@@H]21,0.95 ± 0.073
13,COC(=O)[C@H]1[C@H](CO)[C@H]2Cn3c(cccc3=O)[C@H]2N1CC1CC1,0.967 ± 0.037
14,COC(=O)[C@@H]1[C@@H](CO)[C@@H]2Cn3c(cccc3=O)[C@@H]2N1CC1CC1,0.972 ± 0.034
15,O=C([C@H]1N[C@H]2c3cccc(=O)n3C[C@H]2[C@@H]1CO)N1CCCCC1,1.077 ± 0.0027
16,COc1cccc(-c2ccc([C@@H]3[C@H](CO)N4CCCCN(C(=O)Cc5ccncc5)C[C@@H]34)cc2)c1,1.019 ± 0.004
17,COC(=O)[C@H]1[C@H](CO)[C@H]2Cn3c(ccc(-c4cccc(F)c4)c3=O)[C@@H]1N2Cc1ccncc1,1.04 ± 0.058
18,C[C@H]1CN([C@@H](C)CO)C(=O)CCCn2cc(nn2)CO[C@@H]1CN(C)C(=O)Oc1ccc2ccccc2c1,1.08 ± 0.021
19,COc1cccc(-c2ccc([C@@H]3[C@@H](CO)N4CCCCN(C(=O)Cc5ccncc5)C[C@@H]34)cc2)c1,0.865 ± 0.051
20,C[C@H](CO)N1C[C@H](C)[C@@H](CN(C)C(=O)Oc2cccc3ccccc23)OCc2cnnn2CCCC1=O,0.943 ± 0.044
21,C/C=C/c1ccc([C@@H]2[C@@H]3CN(Cc4ccccn4)C[C@H]2N3)cc1,1.09 ± 0.061
22,C/C=C/c1ccc([C@@H]2[C@H]3CNC[C@@H]2N3Cc2ccccn2)cc1,0.9915 ± 0.0027
23,O=C1CNC[C@@H]2[C@H](c3ccc(Br)cc3)[C@@H](CO)N12,1.0696 ± 0.00028
24,C/C=C/c1ccc([C@H]2[C@@H]3CN(C(=O)C4CCOCC4)C[C@H]2N3)cc1,1.1 ± 0.058
25,O=C1CNC[C@H]2[C@H](c3ccc(Br)cc3)[C@H](CO)N12,1.05 ± 0.023
26,OC[C@@H]1[C@H]2c3ccccc3NC[C@H]2N1Cc1cccnc1,0.984 ± 0.058

row,Compound,viability index
1,C[C@@H]1CN([C@@H](C)CO)C(=O)CCCn2cc(nn2)CO[C@@H]1CN(C)C(=O)Oc1ccc2ccccc2c1,1.05 ± 0.019
2,CN1c2ccc(Br)cc2[C@@H]2NCC[C@@H]2[C@@H]1CO,1 ± 0.045
3,C/C=C/c1ccc([C@@H]2[C@H]3CN(C(=O)Cc4cccnc4)CCCCN3[C@H]2CO)cc1,1.12 ± 0.03
4,C/C=C/c1ccc([C@@H]2[C@@H](CO)N3CCCCN(C(=O)Cc4cccnc4)C[C@H]23)cc1,1.08 ± 0.098
5,O=C(Cc1ccncc1)N1CCCCN2[C@@H](CO)[C@H](c3ccc(C#Cc4ccccc4F)cc3)[C@@H]2C1,0.84 ± 0.22
6,OC[C@H]1[C@H]2c3ccccc3NC[C@H]2N1Cc1cccnc1,0.965 ± 0.065
7,CCCNC(=O)N1[C@@H]2c3ccc(-c4ccccc4OC)c(=O)n3C[C@H]1[C@H](CO)[C@H]2C(=O)OC,1.03 ± 0.025
8,COc1ccccc1CN1[C@H](CO)[C@@H](c2ccccc2)C12CN(C(=O)Cc1ccccc1)C2,0.992 ± 0.079
9,CN1[C@@H]2CNc3ccccc3[C@@H]2[C@@H]1CO,1.02 ± 0.17
10,CN(C)CC#Cc1ccc([C@H]2[C@@H](CO)N3CCCCN(C(=O)Cc4ccccn4)C[C@H]23)cc1,0.944 ± 0.047
11,O=C(O)C[C@@H]1CC[C@H]2NC[C@H](O)COC[C@@H]2O1,1.02 ± 0.11
12,O=C1CNC[C@H]2[C@@H](c3ccc(Br)cc3)[C@H](CO)N12,0.837 ± 0.14
13,C/C=C/c1ccc([C@@H]2[C@@H](CO)N3CCCCN(C(=O)Cc4cccnc4)C[C@@H]23)cc1,1 ± 0.029
14,COc1cccc(-c2ccc([C@@H]3[C@@H](CO)N4CCCCN(C(=O)Cc5ccncc5)C[C@H]34)cc2)c1,0.9892 ± 0.0031
15,COC(=O)[C@@H]1[C@@H](CO)[C@@H]2Cn3c(cccc3=O)[C@H]1N2CCc1ccccc1,1.04 ± 0.011
16,C[C@H]1CN([C@@H](C)CO)C(=O)CCCn2nncc2CO[C@H]1CN(C)C(=O)Oc1cccc2ccccc12,1.08 ± 0.018
17,O=C(O)[C@H]1[C@H](CO)[C@H]2Cn3c(ccc(C4=CCCCC4)c3=O)[C@@H]1N2C(=O)Cc1ccccn1,1.01 ± 0.0059
18,COC(=O)[C@H]1[C@H](CO)[C@H]2Cn3c(cccc3=O)[C@@H]1N2CCc1ccccc1,1.06 ± 0.071
19,CN1[C@H](CO)[C@H]2c3ccccc3NC[C@H]21,1.05 ± 0.098
20,C/C=C/c1ccc([C@H]2[C@H]3CNC[C@@H]2N3Cc2ccccn2)cc1,1.07 ± 0.017
21,COc1cccc(-c2ccc([C@@H]3[C@H]4CN(C(=O)Cc5ccncc5)CCCCN4[C@H]3CO)cc2)c1,0.936 ± 0.055
22,COc1cccc(-c2ccc([C@H]3[C@H]4CN(C(=O)Cc5ccncc5)CCCCN4[C@H]3CO)cc2)c1,1.01 ± 0.07
23,OC[C@@H]1Nc2ccc(C#Cc3cccnc3)cc2[C@H]2NCC[C@@H]12,1.065 ± 0.006
24,O=C(O)[C@@H]1[C@@H](CO)[C@@H]2Cn3c(ccc(C4=CCCCC4)c3=O)[C@H]1N2C(=O)Cc1ccccn1,1.03 ± 0.13
25,C[C@H]1CN([C@@H](C)CO)C(=O)CCCn2cc(nn2)CO[C@H]1CN(C)C(=O)Oc1ccc2ccccc2c1,1.04 ± 0.036
